# Laboratory results: PMC4336329 (PLoS ONE, 2015)
# Out of some 310,000 compounds screened, about 2,200 (0.71%) showed an effect of 50% or more. Effects have a minus sign here. The list shows a part of the results.
# Molecular target: human ether-à-go-go-related gene (hERG) potassium channel (human, UniProt Q12809)
# Test: primary screen, population patch clamp on CHO cells stably expressing hERG
# Sequence of human ether-à-go-go-related gene (hERG) potassium channel (Q12809 whole entry, looked up): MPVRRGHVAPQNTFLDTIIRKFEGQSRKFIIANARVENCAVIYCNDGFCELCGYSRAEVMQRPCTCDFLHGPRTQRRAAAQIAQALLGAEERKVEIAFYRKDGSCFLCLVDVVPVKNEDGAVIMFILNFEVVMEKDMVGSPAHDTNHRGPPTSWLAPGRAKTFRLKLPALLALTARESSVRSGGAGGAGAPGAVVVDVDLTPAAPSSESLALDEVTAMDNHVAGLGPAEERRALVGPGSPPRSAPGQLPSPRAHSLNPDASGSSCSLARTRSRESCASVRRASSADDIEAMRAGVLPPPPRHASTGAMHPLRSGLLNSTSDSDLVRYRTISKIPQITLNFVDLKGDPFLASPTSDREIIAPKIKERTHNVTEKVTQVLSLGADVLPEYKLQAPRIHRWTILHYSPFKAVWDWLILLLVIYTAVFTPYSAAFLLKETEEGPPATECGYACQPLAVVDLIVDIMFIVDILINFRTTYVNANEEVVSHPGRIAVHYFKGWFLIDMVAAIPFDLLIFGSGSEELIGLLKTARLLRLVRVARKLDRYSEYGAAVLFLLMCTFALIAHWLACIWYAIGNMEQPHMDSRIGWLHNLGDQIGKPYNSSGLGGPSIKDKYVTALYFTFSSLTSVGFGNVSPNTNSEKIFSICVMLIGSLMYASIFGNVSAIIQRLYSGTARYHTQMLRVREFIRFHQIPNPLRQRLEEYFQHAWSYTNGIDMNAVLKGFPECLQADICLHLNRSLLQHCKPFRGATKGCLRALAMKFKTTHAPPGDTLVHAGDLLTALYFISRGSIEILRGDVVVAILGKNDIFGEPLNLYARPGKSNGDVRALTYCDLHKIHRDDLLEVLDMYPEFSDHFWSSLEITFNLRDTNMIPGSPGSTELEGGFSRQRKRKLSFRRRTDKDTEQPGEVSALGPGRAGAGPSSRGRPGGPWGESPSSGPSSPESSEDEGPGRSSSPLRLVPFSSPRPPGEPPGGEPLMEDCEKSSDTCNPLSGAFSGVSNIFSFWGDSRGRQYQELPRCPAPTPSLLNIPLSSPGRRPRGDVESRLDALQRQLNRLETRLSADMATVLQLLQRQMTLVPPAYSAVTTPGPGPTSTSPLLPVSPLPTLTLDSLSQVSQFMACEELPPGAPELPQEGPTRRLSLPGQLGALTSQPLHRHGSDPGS
row,Structure (SMILES),"hERG current change (%, negative = inhibition) at 1uM [%]"
1,CCC(CC)N1CCN(Cc2nc3ccccc3c(=O)n2-c2ccc(F)cc2)CC1,-3.22
2,Cc1ccccc1N1C(=O)C(Cc2ccc(F)cc2)S/C1=C(\C#N)C(N)=O (stereo not drawn),14.1
3,Fc1cccc(Cl)c1Cc1noc(/C=C/c2ccccc2)n1,16.2
4,O=C1C=C(O)c2cccc3cccc1c23,17.9
5,Cc1nc(-c2ccc(S(=O)(=O)N3CCN(c4cccc(C)c4C)CC3)cc2)co1,14.6
6,O=C(CCCc1ccccc1)NCc1ccccc1Cl,7.24
7,CCc1ccc(NC(=S)N(Cc2ccc(Cl)cc2)Cc2ccc(C(=O)O)cc2)cc1,12.2
8,COc1cc2c(cc1OC)C(C)N(C(=O)Nc1cc(C)cc(C)c1)CC2 (stereo not drawn),7.03
9,CC1CCCCC1NC(=O)c1ccc2c(c1)[nH]c(=O)n2C1CCCC1 (stereo not drawn),-5.2
10,CCc1nc2ccc(C(=O)N3CCN(c4ccccc4)CC3)cc2nc1CC,11.7
11,O=C(Nc1ccccc1C(=O)NCc1ccccc1)c1ccccc1Br,9.82
12,Cc1cc(C)cc(Nc2ncnc3nc[nH]c23)c1,6.8
13,CN1CCN(c2ccccc2NC(=O)c2ccc(-c3ccccc3[N+](=O)[O-])o2)CC1,-13.8
14,Cc1ccc(NC(=O)c2cccc(S(=O)(=O)N3CCc4ccccc4C3)c2)nc1,-8.48
15,Cn1c(=O)c2cc(S(=O)(=O)NCCC(=O)NCCc3ccc(Cl)cc3)ccc2n(C)c1=O,-2
16,COc1ccc(OC)c(C(C(=O)NCc2ccco2)N(C(=O)Cn2nnc3ccccc32)C(C)C)c1 (stereo not drawn),-1.74
17,COc1cccc(NC(=O)C2CC2(c2cccc(OC)c2)c2cccc(OC)c2)c1 (stereo not drawn),3.96
18,CCOC(=O)C(C(=O)NCCCN1CCOCC1)C1CCCCC1 (stereo not drawn),12.2
19,COc1ccccc1-n1cnnc1SCC(=O)Nc1ccccc1,2.42
20,Cc1cc(C)c(S(=O)(=O)Nc2ccc3c4c(cccc24)CC3)c(C)c1,4.46
21,c1nc(NCC2(N3CCOCC3)CCCCC2)c2ccsc2n1,-54.5
22,Cc1ccccc1NC(=O)CN1C(=O)S/C(=C\c2cccn2-c2cccc(C(=O)O)c2)C1=O,10.7
23,CN1CCN(C(=O)Cn2c(C(F)(F)F)nc3ccccc32)CC1,15.2
24,O.O=C(/C=C/c1ccc(O)c(O)c1)O[C@@H]1C[C@](O)(C(=O)O)C[C@@H](O)[C@H]1O,7.59
25,Cc1c(C(=O)OCC(=O)Nc2c(C)n(C)n(-c3ccccc3)c2=O)cccc1[N+](=O)[O-],9.1
26,CCc1ccc(C(=O)C(C)OC(=O)Cn2cnc3c2c(=O)n(C)c(=O)n3C)cc1 (stereo not drawn),12.3
27,O=C(NC1(C(F)(F)F)NC(=O)N(C2CCCCC2)C1=O)c1cccs1 (stereo not drawn),3.99

row,Structure (SMILES),"hERG current change (%, negative = inhibition) at 1uM [%]"
1,O=c1c([N+](=O)[O-])cccn1Cc1ccc(F)cc1Cl,6.45
2,COc1ccc(N/C(N)=N/c2nc(CSc3nnc(C)s3)cc(=O)[nH]2)cc1,16.7
3,O=C(O)CCCC(=O)NNc1ncnc2ccccc12,12.7
4,O=C(Nc1ccc(S(=O)(=O)N2CCCCC2)cc1)C1CCN(C(=O)c2ccco2)CC1,9.8
5,NC(=S)Nc1ccc2cc[nH]c2c1,0.216
6,COCCCNC(=O)Cn1cnc2sc(C)c(S(=O)(=O)N3CCN(c4ccccc4OC)CC3)c2c1=O,5.16
7,Cn1c(CNC(=O)c2ccco2)nnc1SCC(=O)c1ccc(Br)cc1,-7.3
8,Cc1ccc2c([N+](=O)[O-])cccc2n1,13
9,Br.COc1ccc(N=C/C=C2\C=C(c3ccccc3)OC(C)(C)O2)cc1,7.56
10,Cn1ncc(Br)c1N1C(=O)CCC1=O,10.6
11,COCC(=O)N1CCC(Oc2ccc(C(=O)NCc3csc(C(C)C)n3)cc2)CC1,29.3
12,O=C(CN1C(=O)NC2(CCCC2)C1=O)N1CCN(S(=O)(=O)c2ccc(Cl)c(C(F)(F)F)c2)CC1,3.74
13,CCc1ccccc1NC(=O)C(Cc1cccc(OC)c1OC)c1nn[nH]n1 (stereo not drawn),7.66
14,O=C(CSc1n[nH]c(-c2ccco2)n1)N1c2ccccc2Sc2ccccc21,14.3
15,COc1cc(C(=O)Nc2cc(C(F)(F)F)ccc2N2CCOCC2)ccc1OCC(=O)N1CCOCC1,9.82
16,COC(=O)c1sccc1NC(=S)N1CCCCC1,11.8
17,Cc1cc(NS(=O)(=O)c2ccc(NC(=O)C(C)Oc3ccc4c(C)cc(=O)oc4c3)cc2)no1 (stereo not drawn),5.14
18,O=c1[nH]n(-c2cccc(Cl)c2)c2ncccc12,4.63
19,Cc1ccc(NC(=O)NC2CCCCCCC2)cc1C,11.5
20,O=C(C1CCCN(S(=O)(=O)c2cccc3nsnc23)C1)N1CCc2ccccc2C1 (stereo not drawn),5.53
21,C[C@H]1CCC[C@@]2(O[C@@H](CCO)C[C@@H](O)[C@@H]2O)O1,4.72
22,CCCOc1ccc(N2C(=O)CC(N3CCN(c4ccccc4OC)CC3)C2=O)cc1 (stereo not drawn),0.35
23,Cn1c(=O)c2c(ncn2CC(=O)N2CCN(S(=O)(=O)c3ccc(Cl)cc3)CC2)n(C)c1=O,9.74
24,COc1cc(CCC(=O)N2CCN(c3ccc([N+](=O)[O-])cc3)CC2)cc(OC)c1OC,-83.6
25,CC(CN(C)Cc1ccccc1)OC(=O)c1ccccc1F.Cl (stereo not drawn),9.15
26,COc1ccc(-c2nsc(SCC(=O)Nc3ccc4c(c3)OCO4)n2)cc1,15
27,COc1ccc(N(CC(=O)NC2CCCC2)C(=O)CS(=O)CC(=O)Nc2ccc3c(c2)OCO3)cc1 (stereo not drawn),7.58
